# The other results are listed elsewhere or left out.
# Biological target: T1, OsWOX13 (Oryza sativa, UniProt Q5QMM3 1-267)
# T1 sequence: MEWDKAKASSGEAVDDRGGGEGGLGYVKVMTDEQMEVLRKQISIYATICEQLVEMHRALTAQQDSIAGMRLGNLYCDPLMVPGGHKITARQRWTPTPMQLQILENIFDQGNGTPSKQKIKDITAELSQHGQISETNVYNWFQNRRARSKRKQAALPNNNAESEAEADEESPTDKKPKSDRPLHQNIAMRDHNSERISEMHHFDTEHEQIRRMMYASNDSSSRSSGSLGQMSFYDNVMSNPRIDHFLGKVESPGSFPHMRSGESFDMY
# Assay: protein-binding microarray (RPBM); PBS, 2% BSA, 51.3 ng/ul salmon testes DNA, 50 uM zinc acetate, 200 nM TF, 25 C, 1 h; high values mean tight binding
# Conditions: protein: recombinant; tags: N-terminal polyhistidine and DsRed monomer fusion (pET32a); label: CyDye5-dUTP incorporated in the synthesized complementary strand; 3' TTTTT single-stranded linker to array surface; dsDNA, one strand shown
# Method in brief: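 The binding signal for each feature is its fluorescence intensity in arbitrary units. An Axon 4000B scanner was used to read a custom Agilent array that had been made double-stranded with Cy5-dUTP primer extension, blocked with 2% BSA, incubated at 25 °C for 1 h with 200 nM protein in PBS, 2% BSA, salmon testes DNA and 50 µM zinc acetate, and washed. The protein was an N-terminal polyhistidine–DsRed transcription factor fusion from E. coli BL21-CodonPlus, purified on Ni–NTA.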
row,Sequence,binding signal
1,TTGCACAGTTTACACGTAAATTACGAGATAAATCTTTTGACGGAGTCACCTAGTGCAG,7040 fluorescence intensity (a.u.)
2,ATAATTAATTTAGTGAGTAAAATCATTTAAAGTTTGATAACGGAGTCACCTAGTGCAG,29300 fluorescence intensity (a.u.)
3,GACTGGGAGGATGAGGGGTGGGTGGGTGTGGCTGCTTCTGCGGAGTCACCTAGTGCAG,4110 fluorescence intensity (a.u.)
4,ATGATCCTATAAATTACCATATTATTGTGTGTTTTGCACGCGGAGTCACCTAGTGCAG,3770 fluorescence intensity (a.u.)
5,GTCAATCATGGAGTAATTAGGCTCAAAAGATTCGTCTTGCCGGAGTCACCTAGTGCAG,21200 fluorescence intensity (a.u.)
6,TCTAATTATTTGATATTAGTTATTTTCCTTAACATTCGTGCGGAGTCACCTAGTGCAG,49900 fluorescence intensity (a.u.)
7,GTACCTTTGATTAAAGGTAGTTTGGACCACAGTTGGTACACGGAGTCACCTAGTGCAG,3990 fluorescence intensity (a.u.)
8,ATGTCTGTATCTGTTATTGTTTCTATTGTGTCTGATCCAACGGAGTCACCTAGTGCAG,4690 fluorescence intensity (a.u.)
9,TAAGCCTAATTAATCTATAATTAGAGAATGTTTACTGTAGCGGAGTCACCTAGTGCAG,39400 fluorescence intensity (a.u.)
10,GGGAGTATATAATTTACAAATAACTAAAATTTGATATTAACGGAGTCACCTAGTGCAG,3630 fluorescence intensity (a.u.)
11,GCTTTGACCACTAATCACCGGGTTAGGTCTAATGACTGTTCGGAGTCACCTAGTGCAG,12100 fluorescence intensity (a.u.)
12,AAACTCTAACATTTAGAGATTAGGGATATGTAGTTGGTTTCGGAGTCACCTAGTGCAG,3290 fluorescence intensity (a.u.)
13,GATCAAACATTGCACCTGATTGGGGTCTCATGCTTTATGTCGGAGTCACCTAGTGCAG,6920 fluorescence intensity (a.u.)
14,CCGCTTGATTTATGATTTATTGATGGCATCGCGTATACACCGGAGTCACCTAGTGCAG,51100 fluorescence intensity (a.u.)
15,CATCCAATCACAACCCTCCACCACTCACTTCTACATACTTCGGAGTCACCTAGTGCAG,14900 fluorescence intensity (a.u.)
16,AGCATGCTCCTTGATTGATGGATTAGGTCAGGTCTTTTATCGGAGTCACCTAGTGCAG,26000 fluorescence intensity (a.u.)
17,TGCCAGATTGAAGCGAGGAGAAGAAAGAGTTCGACTCAATCGGAGTCACCTAGTGCAG,6580 fluorescence intensity (a.u.)
18,ATAAACTGCTAGACGAATCTATTAAGCCTAATTAATCCGTCGGAGTCACCTAGTGCAG,12800 fluorescence intensity (a.u.)
19,TTTCCTAATTACTGCTACAGCAGCTCGGCAAAGTGATCTTCGGAGTCACCTAGTGCAG,5710 fluorescence intensity (a.u.)
20,CTATAATTTCGTAATTCATGATCGTTCGTTCTGTAACCTCCGGAGTCACCTAGTGCAG,24600 fluorescence intensity (a.u.)
21,ATAATAATTGACTATTCATAGTGCATATTTTCTGACTTTCCGGAGTCACCTAGTGCAG,15800 fluorescence intensity (a.u.)

row,Sequence,binding signal
1,CCAATTAATTATTTCTTAAGCTCTCAGACAGGCCATACGACGGAGTCACCTAGTGCAG,15600 fluorescence intensity (a.u.)
2,GTTTTGTCAAATTATTAGTACTAGTTTCAGTTTGATAAGGCGGAGTCACCTAGTGCAG,3270 fluorescence intensity (a.u.)
3,GAGAGATGACATGGACCTTGACATGTGGCCCACGTGGCATCGGAGTCACCTAGTGCAG,3180 fluorescence intensity (a.u.)
4,AATTAAATTAATAATATATGTTTAGATCGTACATGTGGCACGGAGTCACCTAGTGCAG,25000 fluorescence intensity (a.u.)
5,AATCCATTACTATCCTTCTGCTGTTATCTTTCAATAAACCCGGAGTCACCTAGTGCAG,4080 fluorescence intensity (a.u.)
6,CAACAGATAATCAAAGAAAATAAATATGTTAACAAATACGCGGAGTCACCTAGTGCAG,3430 fluorescence intensity (a.u.)
7,GACTAACCGAATTGACCGAACAAAATTCGGTCTTTCACTACGGAGTCACCTAGTGCAG,4170 fluorescence intensity (a.u.)
8,TTCATCATCTTCTCCTTAATTTACGCTTGGCTGGGAAGTGCGGAGTCACCTAGTGCAG,4740 fluorescence intensity (a.u.)
9,AGAACCTAATCACGACCAATCCGTCGCCAACACAGCCACACGGAGTCACCTAGTGCAG,8710 fluorescence intensity (a.u.)
10,CTGGAATAAATTGCTTTGTAAAATGATTCCAGTTTTAAATCGGAGTCACCTAGTGCAG,12000 fluorescence intensity (a.u.)
11,CGCCATTAATTAGCCACACCTGCAAATCTCACTCTAGCTCCGGAGTCACCTAGTGCAG,19200 fluorescence intensity (a.u.)
12,CATTGATTTGCATGAAGGCCCAAAAGGAAGAGGTGTTGTCCGGAGTCACCTAGTGCAG,32400 fluorescence intensity (a.u.)
13,GGCCAAAATTGACGCGGAGACGCCGGATCCAACCACGCACCGGAGTCACCTAGTGCAG,8350 fluorescence intensity (a.u.)
14,GTTTTGAAAATTTACAAATCTAATCGCCTGCCGCCCTTTGCGGAGTCACCTAGTGCAG,6710 fluorescence intensity (a.u.)
15,CGGAGAGATAGATTGGTTGGTTGCGAGGGCGAGGCGGCGGCGGAGTCACCTAGTGCAG,30700 fluorescence intensity (a.u.)
16,CAAGTTGATTGCGATGAGTTGTACAAAATTCCACACAAATCGGAGTCACCTAGTGCAG,23800 fluorescence intensity (a.u.)
17,CTTATTTAATCAATTTATACTTCTATATACTACGACCTATCGGAGTCACCTAGTGCAG,16300 fluorescence intensity (a.u.)
18,ATTTACAAATTCATCAATCATGTGAGTCTTTCGAAACAATCGGAGTCACCTAGTGCAG,11200 fluorescence intensity (a.u.)
19,GAGGATTTCAATCCTATAGGAAAATTTTCTATGATGCCCTCGGAGTCACCTAGTGCAG,3400 fluorescence intensity (a.u.)
20,AAAATCATGTAACAATTAGGCTTAAAAGATTCGTCTCGCACGGAGTCACCTAGTGCAG,7050 fluorescence intensity (a.u.)
21,TCTTTCTTGATTTCCCAATCTACTAAGCTCCTACTAGCTCCGGAGTCACCTAGTGCAG,11000 fluorescence intensity (a.u.)

row,Sequence,binding signal
1,TCATGTCATAAATTAAATTATTTGAAATTATTTGGTACAGCGGAGTCACCTAGTGCAG,13900 fluorescence intensity (a.u.)
2,TTGTAAACTGATACAGTCCAGTATCCCCGTGGGTGGTGGACGGAGTCACCTAGTGCAG,3170 fluorescence intensity (a.u.)
3,GTAGATCAATTTCCTTAACCGAATATAGCAAGAATCCGACCGGAGTCACCTAGTGCAG,3270 fluorescence intensity (a.u.)
4,AATTCTAATTTATATGGTAGATTTTAAAAGTTAAATTGGACGGAGTCACCTAGTGCAG,20700 fluorescence intensity (a.u.)
5,GGTAACCTTAATCAATTTGCTGTCAAAGGAAGAAAAGTAACGGAGTCACCTAGTGCAG,7500 fluorescence intensity (a.u.)
6,CTTAAATGATGAAGAAGATTAATTTTATAGATAGGTGCTTCGGAGTCACCTAGTGCAG,23100 fluorescence intensity (a.u.)
7,TAATACTTAATTAATCACGTGTTAATGAACCGTTCCGTTTCGGAGTCACCTAGTGCAG,27700 fluorescence intensity (a.u.)
8,GTAGTTCTTGATGTATTTCAATTAGAACCTTAATTTTCCACGGAGTCACCTAGTGCAG,3390 fluorescence intensity (a.u.)
9,CAAACTATTTATGCGATGAGTGATTTGATCATACCGTTGACGGAGTCACCTAGTGCAG,3690 fluorescence intensity (a.u.)
10,TCTTAAATTTTACAAAATTATAATGGCATAGTTCCAATTTCGGAGTCACCTAGTGCAG,13300 fluorescence intensity (a.u.)
11,TGTATGTGAATTGATTGTACCCATTGGGTTTTGTTTTCTACGGAGTCACCTAGTGCAG,14200 fluorescence intensity (a.u.)
12,TCAAATTTAACGGACGAGAATCATCCACCGCTTCAGATCCCGGAGTCACCTAGTGCAG,5020 fluorescence intensity (a.u.)
13,ATTAACTGACTTTTGGTAGAGGCGGTCCAAATTAATGGCTCGGAGTCACCTAGTGCAG,14100 fluorescence intensity (a.u.)
14,CTTCTACAGTGATTGGTCAATCAGCACAGTAACTAGTAGTCGGAGTCACCTAGTGCAG,34400 fluorescence intensity (a.u.)
15,CGGATTGATCGACGGCGAAGAATGAAGCTCACCAGAATTTCGGAGTCACCTAGTGCAG,5290 fluorescence intensity (a.u.)
16,CGTAATTAAGGCTCTTATCCCCTCAGCATTCATCTTTGACCGGAGTCACCTAGTGCAG,12900 fluorescence intensity (a.u.)
17,CTCAATCAATATTCCACTAATTAAACCCTCCATTGATGATCGGAGTCACCTAGTGCAG,17200 fluorescence intensity (a.u.)
18,GTTTGGAGGTGTTTGATTGGAGAATGCCAGAATGTAAATTCGGAGTCACCTAGTGCAG,8100 fluorescence intensity (a.u.)
19,AACAAGTTTTATCAATCTATCTGGAAGAAAGGAGTATATACGGAGTCACCTAGTGCAG,4420 fluorescence intensity (a.u.)
20,ATATATATAAATTTTAAATCTGTTGTAACGTACTCCAAGTCGGAGTCACCTAGTGCAG,3280 fluorescence intensity (a.u.)
21,CTAGTAATTTACTTATTAGTACCTGTGTAGTATTATCTATCGGAGTCACCTAGTGCAG,6560 fluorescence intensity (a.u.)

row,Sequence,binding signal
1,ATGGACGATGACTGATGATGACTCTCAAGAGAATGTGTTTCGGAGTCACCTAGTGCAG,8460 fluorescence intensity (a.u.)
2,ACTTAATTCTCGTAACATTATTTATATAAACATAATAAATCGGAGTCACCTAGTGCAG,4120 fluorescence intensity (a.u.)
3,TTCTGATGGAAACTGGCATTTGTGTTATAACAGGAGCTGGCGGAGTCACCTAGTGCAG,25700 fluorescence intensity (a.u.)
4,GTTAATTTGAGTGTGCTTGATTTCCTTCGGCCATTGTTCTCGGAGTCACCTAGTGCAG,28000 fluorescence intensity (a.u.)
5,TCTCGCAATAATTAGGGAGAATGATCGGGCAGGGCTTAATCGGAGTCACCTAGTGCAG,6900 fluorescence intensity (a.u.)
6,TCGTAAAATTAATTGTAAATTGTAATATGATAACAAGGCCCGGAGTCACCTAGTGCAG,33100 fluorescence intensity (a.u.)
7,TGCATCTCTGATTTGTAGTGAATGGGTCAAATGCTTTTGACGGAGTCACCTAGTGCAG,9930 fluorescence intensity (a.u.)
8,TATTTATGATTTGTAGGTAGATAAGATTATGATTTGTCGACGGAGTCACCTAGTGCAG,9810 fluorescence intensity (a.u.)
9,CTCTTGATTGCGGCGCGACTGCGAGCGAGAGAGCTTCACGCGGAGTCACCTAGTGCAG,20500 fluorescence intensity (a.u.)
10,GCTTAATTGGTTAGTGGACTAGTATATAGTAGTACTGTATCGGAGTCACCTAGTGCAG,46500 fluorescence intensity (a.u.)
11,ACTAATTTGGTATTATAACTGTTGCTAATTATTCTATAAACGGAGTCACCTAGTGCAG,21700 fluorescence intensity (a.u.)
12,TCAATTTGTAGGGCATGATTAGATCCTAATTTTCTAAAGTCGGAGTCACCTAGTGCAG,7260 fluorescence intensity (a.u.)
13,ATGATTGGCCTCATCTTCTGCCACCGTTGGTCGACCCCGTCGGAGTCACCTAGTGCAG,38500 fluorescence intensity (a.u.)
14,ATTTCAATCTAGCTGACATCATCACTTCATCTTATTTGACCGGAGTCACCTAGTGCAG,11300 fluorescence intensity (a.u.)
15,ATTATGCACATAAATATGCTAATTAGAAAAGTGACACCATCGGAGTCACCTAGTGCAG,5290 fluorescence intensity (a.u.)
16,CACTAACTGCAGCTGTTGGCGATCGAATTAAGGATCCTGCCGGAGTCACCTAGTGCAG,3410 fluorescence intensity (a.u.)
17,GTAATTGAAGGACAATACTACCGACTAGGGTGCGTTTTAACGGAGTCACCTAGTGCAG,7100 fluorescence intensity (a.u.)
18,TCGATTAGAGAGAGATAATTAAGAAACAGGGATTACGGACCGGAGTCACCTAGTGCAG,3530 fluorescence intensity (a.u.)
19,AAGTTTCAAAATTTAAATTTTGACCGCATGCAGCTGATAACGGAGTCACCTAGTGCAG,4610 fluorescence intensity (a.u.)
20,GCTGTAATTAGAGAAGAGGATTTAAAGAGAGAGAAGGCCACGGAGTCACCTAGTGCAG,12800 fluorescence intensity (a.u.)
21,GTAATTTTGGTATGATTTAATAACTAAATTTGGTACCTCACGGAGTCACCTAGTGCAG,10400 fluorescence intensity (a.u.)
